Data reported in the supplement of paper PMC12217912.
Some of the results follow. The full chains were built here from the parent and the listed change. Inactive controls read about 0.05.

B1: TEV protease; numbered along this chain (parent)
chain: MGESLFKGPRDYNPISSSICHLTNESDGHTTSLYGIGFGPFIITNKHLFRRNNGTLVVQSLHGVFKVKDTTTLQQHLVDGRDMIIIRMPKDFPPFPQKLKFREPQREERICLVTTNFQTKSMSSMVSDTSCTFPSGDGIFWKHWIQTKDGQCGSPLVSTRDGFIVGIHSASNFTNTNNYFTSVPKNFMELLTNQEAQQWVSGWRLNADSVLWGGHKVFMVKPEEPFQPVKEATQL

Variants of: B1
Assay: raw area under fraction-flipped curve 0-4 h after induction (AUC4h, not background-subtracted), DNA-recorder readout of cleavage of the substrate (dimensionless); higher = more cleavage of the substrate by the protease variant
Conditions: temperature: 34 °C; time window: 0-4 h after rhamnose induction
Description: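 In vivo DNA recorder in E. coli TOP10(DE3) ΔrhaA at 34 °C. Each TEVp single-site mutant (parent TEVp 0) is paired with a single-site variant of the 7-mer TEVs (canonical ENLYFQ|S). The substrate sits between flexible linkers in a Bxb1-sfGFP-TEVs-SsrA fusion, so cleavage stabilises Bxb1 and speeds flipping of a recombination array, read by NGS. The value is the raw area under the fraction-flipped curve over 0-4 h after rhamnose induction (AUC4h), with ≥20 reads per time point. It is not background-subtracted; inactive controls average about 0.047.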
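Further: Bxb1 expression induced with 0.2% (w/v) L-rhamnose at OD600 near 0.5, cultures sampled hourly, flipped fraction per protease–substrate barcode pair counted by paired-end Illumina sequencing.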

Row | Variant | area with substrate ENLAFQS | area with substrate ENLCFQS | area with substrate ENLDFQS | area with substrate ENLEFQS | area with substrate ENLFFQS | area with substrate ENLGFQS | area with substrate ENLHFQS | area with substrate ENLKFQS | area with substrate ENLLFQS | area with substrate ENLNFQS | area with substrate ENLPFQS | area with substrate ENLQFQS | area with substrate ENLSFQS | area with substrate ENLTFQS | area with substrate ENLVFQS | area with substrate ENLIFQS | area with substrate ENLRFQS | area with substrate ENLWFQS | area with substrate ENLMFQS
1 | E3H | 0.0628 | 0.0746 | 0.0754 | 0.0648 | 0.0775 | 0.0709 | 0.0619 | 0.0842 | 0.0961 | 0.0647 | 0.056 | 0.0631 | 0.0754 | 0.0834 | 0.0467 |  |  |  | 
2 | E3M | 0.0756 |  | 0.0519 | 0.0531 | 0.102 |  | 0.0614 | 0.0718 | 0.0684 | 0.0563 | 0.0615 | 0.077 | 0.0629 |  |  | 0.122 | 0.0717 | 0.0629 | 
3 | S4C | 0.0798 | 0.068 | 0.053 | 0.0609 | 0.0797 | 0.0527 | 0.0584 | 0.0766 | 0.0818 | 0.0514 | 0.0587 |  | 0.0745 |  | 0.074 |  | 0.0692 | 0.0688 | 0.0742
4 | K7D | 0.0732 |  | 0.0308 | 0.0701 |  | 0.0628 | 0.0567 | 0.0617 | 0.0678 | 0.0632 | 0.0601 | 0.0547 | 0.0697 | 0.0817 |  |  |  |  | 
5 | D11V | 0.0709 |  | 0.0699 | 0.0666 | 0.0968 | 0.0696 | 0.0693 | 0.0785 | 0.0743 | 0.0692 | 0.0631 | 0.0412 | 0.073 | 0.0698 | 0.0766 |  | 0.0706 | 0.0712 | 
6 | Y12L | 0.0658 | 0.0671 | 0.0634 | 0.0706 | 0.0853 | 0.0927 | 0.0723 | 0.0765 | 0.0798 | 0.0664 | 0.0621 | 0.067 | 0.0433 |  | 0.0752 | 0.114 | 0.0803 |  | 0.0801
7 | N13E | 0.063 |  | 0.0652 | 0.0604 | 0.0828 | 0.0341 | 0.0586 | 0.0894 | 0.101 | 0.0666 | 0.0615 |  | 0.0625 |  | 0.0885 | 0.0597 | 0.0732 |  | 0.106
8 | N13L | 0.0672 | 0.0646 | 0.062 | 0.0685 | 0.0896 |  | 0.0669 | 0.0778 | 0.0884 | 0.063 | 0.0606 |  | 0.0556 |  | 0.0978 |  | 0.0834 | 0.057 | 0.102
9 | N13P | 0.0535 | 0.056 | 0.0633 | 0.0631 | 0.0991 | 0.0666 | 0.0808 | 0.0679 | 0.069 | 0.0666 | 0.0699 | 0.0695 | 0.0715 | 0.0757 |  |  | 0.0716 | 0.0622 | 0.0869
10 | P14A | 0.0706 |  | 0.0573 | 0.0705 | 0.0805 | 0.0672 | 0.0571 | 0.0964 | 0.0757 | 0.0621 | 0.0524 | 0.0599 | 0.0545 | 0.0537 |  | 0.0954 | 0.0586 | 0.0708 | 
11 | P14M | 0.0697 | 0.0431 | 0.0557 | 0.0474 | 0.0884 | 0.0595 | 0.0656 | 0.0934 | 0.0967 | 0.0605 | 0.0609 | 0.0761 | 0.0648 |  | 0.0745 | 0.0709 | 0.0904 | 0.0584 | 
